Where “and” joins values, the source holds several entries; their conditions need not be identical. Equal values may be shown once.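 Assay format: 96-well plates, 48-hour exposure. Abbreviation: GI50, concentration required for 50% inhibition of growth. TGI is the concentration that stops growth completely.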 Calls of active or inactive are those of the source.
Experiments:
Assay in all cases: NCI-60 cell line screen, 48 h
UO-31 renal = system: UO-31 renal
LOX IMVI melanoma = system: LOX IMVI melanoma
OVCAR-4 ovarian = system: OVCAR-4 ovarian
A549 NSCLC = system: A549 NSCLC
SF-268 CNS = system: SF-268 CNS
OVCAR-8 ovarian = system: OVCAR-8 ovarian
K-562 leukemia = system: K-562 leukemia
SF-539 CNS = system: SF-539 CNS
SNB-19 CNS = system: SNB-19 CNS
HCT-116 colon = system: HCT-116 colon
MDA-MB-435 = system: MDA-MB-435
KM12 colon = system: KM12 colon
SNB-75 CNS = system: SNB-75 CNS
SF-295 CNS = system: SF-295 CNS
COLO 205 colon = system: COLO 205 colon
786-0 renal = system: 786-0 renal
M14 melanoma = system: M14 melanoma
HOP-62 NSCLC = system: HOP-62 NSCLC
TK-10 renal = system: TK-10 renal
EKVX NSCLC = system: EKVX NSCLC
OVCAR-3 ovarian = system: OVCAR-3 ovarian
SK-MEL-5 melanoma = system: SK-MEL-5 melanoma
ACHN renal = system: ACHN renal
PC-3 prostate = system: PC-3 prostate
OVCAR-5 ovarian = system: OVCAR-5 ovarian
NCI-H226 lung = system: NCI-H226 lung
MCF7 breast = system: MCF7 breast
A498 renal = system: A498 renal
BT-549 breast = system: BT-549 breast
SN12C renal = system: SN12C renal
NCI-H23 lung = system: NCI-H23 lung
HS 578T breast = system: HS 578T breast
MOLT-4 leukemia = system: MOLT-4 leukemia
NCI-H460 lung = system: NCI-H460 lung
UACC-257 melanoma = system: UACC-257 melanoma
U251 CNS = system: U251 CNS
T-47D breast = system: T-47D breast
IGROV1 ovarian = system: IGROV1 ovarian
UACC-62 melanoma = system: UACC-62 melanoma
SK-OV-3 ovarian = system: SK-OV-3 ovarian
HCT-15 colon = system: HCT-15 colon
HL-60(TB) leukemia = system: HL-60(TB) leukemia
SK-MEL-28 melanoma = system: SK-MEL-28 melanoma
HT29 colon = system: HT29 colon
CAKI-1 renal = system: CAKI-1 renal
RXF 393 renal = system: RXF 393 renal
HCC-2998 colon = system: HCC-2998 colon
DU-145 prostate = system: DU-145 prostate
SW-620 colon = system: SW-620 colon
SK-MEL-2 melanoma = system: SK-MEL-2 melanoma
NCI-H522 lung = system: NCI-H522 lung
MDA-MB-231 breast = system: MDA-MB-231 breast

Compound: O=C(CCCCCCC(=O)Nc1ccccc1)NO
- GI50 (UO-31 renal): inactive
- TGI (UO-31 renal): 7.58 µM and 6.32 µM
- GI50 (LOX IMVI melanoma): inactive
- TGI (LOX IMVI melanoma): 3.37 µM and 10.2 µM
- GI50 (OVCAR-4 ovarian): inactive
- TGI (OVCAR-4 ovarian): > 100 µM and 97.5 µM
- GI50 (A549 NSCLC): inactive
- TGI (A549 NSCLC): > 100 µM and 22.1 µM
- GI50 (SF-268 CNS): inactive
- TGI (SF-268 CNS): 15.3 µM and 33.4 µM
- GI50 (OVCAR-8 ovarian): inactive
- TGI (OVCAR-8 ovarian): > 100 µM and 22.5 µM
- GI50 (K-562 leukemia): inactive
- TGI (K-562 leukemia): 11.9 µM
- GI50 (SF-539 CNS): inactive
- TGI (SF-539 CNS): > 100 µM and 48.3 µM
- GI50 (SNB-19 CNS): inactive
- TGI (SNB-19 CNS): 54.1 µM and 17.9 µM
- GI50 (HCT-116 colon): 0.377 µM and 0.388 µM
- TGI (HCT-116 colon): 1.46 µM and 5.88 µM
- GI50 (MDA-MB-435): inactive
- TGI (MDA-MB-435): 7.63 µM and 5.91 µM
- GI50 (KM12 colon): inactive
- TGI (KM12 colon): 19.6 µM and 22.9 µM
- GI50 (SNB-75 CNS): inactive
- TGI (SNB-75 CNS): > 100 µM and 55.2 µM
- GI50 (SF-295 CNS): inactive
- TGI (SF-295 CNS): 6.02 µM and 9 µM
- GI50 (COLO 205 colon): inactive
- TGI (COLO 205 colon): 2.59 µM and 2.63 µM
- GI50 (786-0 renal): inactive
- TGI (786-0 renal): 15 µM and 55.2 µM
- GI50 (M14 melanoma): inactive
- TGI (M14 melanoma): 9.8 µM and 20.2 µM
- GI50 (HOP-62 NSCLC): inactive
- TGI (HOP-62 NSCLC): 33.9 µM and 77.3 µM
- GI50 (TK-10 renal): inactive
- TGI (TK-10 renal): 22.2 µM and 8.04 µM
- GI50 (EKVX NSCLC): inactive
- TGI (EKVX NSCLC): > 100 µM and 52.9 µM
- GI50 (OVCAR-3 ovarian): inactive
- TGI (OVCAR-3 ovarian): 17.2 µM and 9.77 µM
- GI50 (SK-MEL-5 melanoma): inactive
- TGI (SK-MEL-5 melanoma): 1.8 µM and 2.67 µM
- GI50 (ACHN renal): inactive
- TGI (ACHN renal): 6.24 µM and 7.52 µM
- GI50 (PC-3 prostate): inactive
- TGI (PC-3 prostate): > 100 µM and 67 µM
- GI50 (OVCAR-5 ovarian): inactive
- TGI (OVCAR-5 ovarian): 6.49 µM and 11.4 µM
- GI50 (NCI-H226 lung): inactive
- TGI (NCI-H226 lung): 22.4 µM and 64.2 µM
- GI50 (MCF7 breast): inactive
- TGI (MCF7 breast): > 100 µM and 41.2 µM
- GI50 (A498 renal): inactive
- TGI (A498 renal): 2.96 µM and 6.69 µM
- GI50 (BT-549 breast): inactive
- TGI (BT-549 breast): 14.5 µM and 23.5 µM
- GI50 (SN12C renal): inactive
- TGI (SN12C renal): 93.4 µM and 30.6 µM
- GI50 (NCI-H23 lung): inactive
- TGI (NCI-H23 lung): 11.7 µM and 9.81 µM
- GI50 (HS 578T breast): inactive
- TGI (HS 578T breast): > 100 µM and 70 µM
- GI50 (MOLT-4 leukemia): 0.321 µM and 0.369 µM
- TGI (MOLT-4 leukemia): 4.33 µM and 11.1 µM
- GI50 (NCI-H460 lung): inactive
- TGI (NCI-H460 lung): > 100 µM and 71.4 µM
- GI50 (UACC-257 melanoma): inactive
- TGI (UACC-257 melanoma): 9.79 µM and 9.37 µM
- GI50 (U251 CNS): inactive
- TGI (U251 CNS): 5.58 µM and 12.5 µM
- GI50 (T-47D breast): inactive
- TGI (T-47D breast): 26.6 µM and 4.36 µM
- GI50 (IGROV1 ovarian): inactive
- TGI (IGROV1 ovarian): 9.28 µM and 8.15 µM
- TGI (UACC-62 melanoma): 1.83 µM and 2.75 µM
- GI50 (SK-OV-3 ovarian): inactive
- TGI (SK-OV-3 ovarian): 6.12 µM and 13.2 µM
- GI50 (HCT-15 colon): inactive
- TGI (HCT-15 colon): > 100 µM and 85 µM
- GI50 (HL-60(TB) leukemia): inactive
- TGI (HL-60(TB) leukemia): 30.7 µM and 14 µM
- GI50 (SK-MEL-28 melanoma): inactive
- TGI (SK-MEL-28 melanoma): 6.74 µM and 8.51 µM
- GI50 (HT29 colon): inactive
- TGI (HT29 colon): > 100 µM and 15.6 µM
- GI50 (CAKI-1 renal): inactive
- TGI (CAKI-1 renal): 2.98 µM and 3.95 µM
- GI50 (RXF 393 renal): inactive
- TGI (RXF 393 renal): 2.46 µM and 5.42 µM
- GI50 (HCC-2998 colon): inactive
- TGI (HCC-2998 colon): 4.24 µM and 15.2 µM
- GI50 (DU-145 prostate): inactive
- TGI (DU-145 prostate): 30.4 µM and 17.9 µM
- GI50 (SW-620 colon): inactive
- TGI (SW-620 colon): 19.4 µM and 8.89 µM
- GI50 (SK-MEL-2 melanoma): inactive
- TGI (SK-MEL-2 melanoma): > 100 µM and 17.1 µM
- GI50 (NCI-H522 lung): inactive
- TGI (NCI-H522 lung): 5.96 µM and 6.9 µM
- GI50 (MDA-MB-231 breast): inactive
- TGI (MDA-MB-231 breast): > 100 µM
